# The whole screen tested about 150,000 compounds, of which about 540 (0.36%) showed an effect of 50% or more. The list shows a part of the results.
# Tested on: Plasmodium falciparum
# Assay: Primary screen in NF54 nanoGlo assay, in single point, at 2uM, 72h; a lower Z score goes with more inhibition
# Assay type: functional, Erythrocyte
# Settings: timepoint 72 hour
SMILES,% Inhibition [%],Z score
Cn1cccc1[C@@H](O)CCNC(=O)Cc1ccsc1,-5,0.57
COc1cccc(N2CCN(C(=O)c3cccc(-c4nc(C)c(C)s4)c3)CC2)c1,-17,2.19
COC(C)(C)c1noc(C2CC3CCC2C3)n1 (configuration not stated),-5,0.66
CC(=O)/N=C1\OC2C(CS(=O)(=O)C2(Br)Br)N1C(C)=O (configuration not stated),-36,4.17
CC1CC(c2cccnc2)N(C(=O)CCC(=O)OC(C)(C)C)C1 (configuration not stated),-12,1.69
CCOC(=O)[C@H]1CCCN(C(=O)c2nc(C)ns2)C1,-19,2.9
O=C(CC1CCCC1)N1C[C@H]2CC[C@@H](C1)N(Cc1ccccc1)C2=O,-15,1.87
CN(c1ccc2cccc(Br)c2n1)C1CCC(O)CC1 (configuration not stated),10,-1.23
CC(=Cc1ccccc1OC(F)F)CN1CCN(C2CC2)CC1,-4,0.72
Cc1ccc(-c2cn3cc(C(=O)N[C@@H](C)c4cccnc4)ccc3n2)cc1,-1,0.17
Cc1ccc(C)c(NC(=O)N(C)CCc2noc(C(=O)NCc3ccc(Cl)cc3)n2)c1,-14,1.27
Cc1cccc2sc(N3CC[C@H](c4cc(=O)[nH]c(=O)[nH]4)C3)nc12,4,-0.6
CC(C)C1OCCCC1CNC(=O)NCc1nc(C(F)(F)F)cs1 (configuration not stated),0,-0.04
CC(C)(C)NC(=O)N1CCC[C@@H]1CO,-9,1.11
COc1ccnc(N2CC(O)(c3cnnn3C)C2)n1,-19,3.56
CN(C)c1ccc(C(=O)N2CC[C@](C)(O)[C@H](O)C2)cn1,0,0.04
Cn1nnc2c(N[C@@H]3CCc4cc(Br)ccc43)ncnc21,0,-0.06
Cc1noc(CNC(=O)c2cc3n(n2)CCCO3)n1,-11,1.73
CCN(CCO)c1nc(N2CCCCC2)c2cnn(C)c2n1,10,-1.23

SMILES,% Inhibition [%],Z score
COC(=O)c1cn(NC(=O)c2cc(C3CC3)on2)cc2c(O)nnc1-2,-9,1.2
C/C=C/CN1CCCn2nc(CN(C)Cc3nc4cccc(C)c4[nH]3)cc2C1,10,-1.34
CCCC(=O)O[C@@H]1C[C@@H](C)N(C(=O)c2ccccc2)c2ccc(C)cc21,0,-0.06
O=C(NCC[C@@H]1CCCC[C@@H]1O)c1cnc2n1CCC2,5,-0.77
CCn1c([C@H]2CCCN(S(=O)(=O)c3ccc(C)c(C)c3)C2)n[nH]c1=O,-6,0.98
O=C1CCN(C(=O)c2ccc(-c3ncon3)cc2)CCN1,0,-0.05
CCN(CC)C(=O)CN(C)c1nc(N)nc(C(C)(C)C)n1,-19,2.41
CCCC(CCc1ccccc1)NC(=O)C1CNCCO1 (configuration not stated),-6,0.79
Fc1ccc([C@@]2(c3noc(-c4ccc[nH]4)n3)CCOC2)cc1,-8,1.66
CCN1CCC[C@H](CN(C)c2ccc(C(C)C)nn2)C1,-4,0.67
CCc1nc(CCN=C(N)Nc2ccc3c(c2)OCCO3)cs1,-1,0.07
CN(Cc1ccc(Cl)cc1)[C@H]1CCOC1=O,-9,1
O=C(NCc1ccccn1)C1(c2ccc3c(c2)OCO3)CCCCC1,-6,1.01
CCc1ccc(NC(=O)Cn2ccn3nc4c(c3c2=O)CCCCC4)cc1,-16,2.03
O=C(Nc1cccc(Cl)c1)Nc1c(-c2cccnc2)[nH]c2ccccc12,3,-0.44
CN(C)[C@@H]1C[C@@H](C(=O)O)N(C(=O)CCCc2ccccc2)C1,-4,0.43
Cc1cccnc1-c1cccc(-c2ccn(CCN3C[C@H]4CC[C@H]3C4)n2)c1,3,-0.39
O=C(C1CC1c1ccccc1)N1CCN(c2nc3cccnc3o2)CC1 (configuration not stated),-10,0.98
COCC(=O)N1CC[C@H]2CC(=O)Nc3cccnc3OCC[C@H]2C1,-11,1.74

SMILES,% Inhibition [%],Z score
C[C@@H]1CN(C(=O)Cc2ccc3c(c2)CCCO3)CC[C@@H]1C(=O)O,5,-1.03
CCc1nc(CC(=O)Nc2ncn(-c3ccccn3)n2)cs1,-15,1.5
CN1CCOc2ccc(NC(=O)NCCOCC(F)F)cc21,-9,0.94
CC(C)CC[C@H](C)NC(=O)Cn1ccnc1,-9,1.26
COc1ncccc1CNCc1ccc2c(c1)OCCO2,3,-0.45
C[C@H]1CN(C(=O)c2cc(=O)[nH]c(C3CC3)n2)Cc2ccccc2O1,-11,1.37
Cc1cccnc1[C@@H](NC(=O)CNC(=O)N(C)C)C1CC1,-2,0.38
COC[C@H](Cc1ccccc1)N(C)CC(=O)NCc1ccccc1,-13,1.35
CCn1cc(-c2noc(CNC(C)=O)n2)cn1,-14,1.74
CCOc1cccnc1C(=O)NCc1nc(-c2ccco2)n[nH]1,-18,3.41
O=C(C1CC=CC1)N1CC(CC(F)F)C1,0,0.03
O=C(c1cnc2c(cnn2C2CCCCC2)c1)c1ccccc1O,-4,0.84
CN(C)c1ccc(NS(=O)(=O)c2c(F)cccc2F)cn1,2,-0.43
Cc1noc(C)c1NC(=O)C[C@H]1CCCc2ccccc21,0,-0.06
CCOC(=O)c1coc(N(C)C(=O)Cc2ccc(C)c(C)c2)n1,-8,1.5
Nc1n[nH]c2ccc(-c3cccc(C(=O)N4C[C@H]5CC=CC[C@H]5C4)c3)cc12,-12,1.55
COc1cccc(C(=O)Nc2nc(-c3ccc(C)s3)ns2)c1,-3,0.46
CCN(Cc1noc(C2CCC2)n1)C(=O)Cn1ccnc1,1,-0.09

# — ChEMBL document CHEMBL4888484, “Replenishing the malaria drug discovery pipeline: Screening and hit evaluation of the MMV Hit Generation Library 1 (HGL1) against asexual blood stage Plasmodium falciparum ,using a nano luciferase reporter read-out” (2022)
